One molecule from PubChem BioAssay AID226 (DTP/NCI, 2004) can be followed below.

The assay relates to B6C3F1 mice, intracerebral ependymoblastoma, median survival T/C. Description: NCI In Vivo Anticancer Drug Screen. Data for tumor model Ependymoblastoma (intracerebral) in B6C3F1 mice. The following applies: endpoint: median survival time; dose: 128.0 mg/kg/injection; schedule: Q01DX005 (ip); vehicle: saline with Tween-80; higher = longer survival. The procedure:
The antitumor activity of compounds was measured in mice bearing transplantable tumors. Survival or tumor size were measured and the results are expressed as the measurement made in the treated group (T) divided by the measurement made in the vehicle treated control group (C). The tumor model used in this assay is Ependymoblastoma (intracerebral) in B6C3F1 mice

Inconclusive results and toxic doses are left out. For part of its entries the source gives two or more results. This is not the full list of results. There may be further records. The records of an entry differ for a reason that is not stated; some may be repeats, others may stem from another dose, organism or construct than stated.

Consider `CCCCCCCCN(C)/N=N/c1nc[nH]c1C(N)=O`, for which the T/C was 114 % of control and 150 % of control.
